Test results published in a collection of fitness landscapes (doi:10.1126/science.1257360).
Some of the results follow.

B1: PhoQ; a variant is named by its letters at X, in order, P23837 (parent)
chain: MKKLLRLFFPLSLRVRFLLATAAVVLVLSLAYGMVALIGYSVSFDKTTFRLLRGESNLFYTLAKWENNKLHVELPENIDKQSPTMTLIYDENGQLLWAQRDVPWLMKMIQPDWLKSNGFHEIEADVNDTSLLLSGDHSIQQQLQEVREDDDDAEMTHSVAVNVYPATSRMPKLTIVVVDTIPVELKSSYMVWSWFIYVLSANLLLVIPLLWVAAWWSLRPIEALAKEVRELEEHNRELLNPATTRELTSLVRNLNRLLKSERERYDKYRTTLTDLTHSLKTPLXXLQXXLRSLRSEKMSVSDAEPVMLEQISRISQQIGYYLHRASMRGGTLLSRELHPVAPLLDNLTSALNKVYQRKGVNISLDISPEISFVGEQNDFVEVMGNVLDNACKYCLEFVEISARQTDEHLYIVVEDDGPGIPLSKREVIFDRGQRVDTLRPGQGVGLAVAREITEQYEGKIVAGESMLGGARMEVIFGRQHSAPKDE

Variants of: B1
Assay: enrichment ratio after two sorts for PhoP signalling (ratio (wild type AVST 3.29)); higher = more functional
Settings: with PhoP (E. coli)

Variant	enrichment ratio
STIV	11.9
MKIM	≤ 0.25
SWIS	≤ 0.25
EGRW	≤ 0.25
YIYH	≤ 0.25
YWQW	≤ 0.25
LNSL	≤ 0.25
FVPD	≤ 0.25
GHAY	≤ 0.25
IYFT	≤ 0.25
DCVT	≤ 0.25
VCYP	≤ 0.25
ACHR	≤ 0.25
QGFN	3.8
AKNP	≤ 0.25
IFSR	≤ 0.25
SGKS	≤ 0.25
SLLK	0.946
DTPN	≤ 0.25
VQPN	≤ 0.25
KNYC	≤ 0.25
EPGI	≤ 0.25
TCHN	≤ 0.25
YWSW	≤ 0.25

Variant	enrichment ratio
PGLI	≤ 0.25
LIVV	≤ 0.25
RDCP	≤ 0.25
LSEW	≤ 0.25
HATQ	≤ 0.25
SNIL	1.93
ENDA	≤ 0.25
WPFL	≤ 0.25
GHHH	≤ 0.25
KEAC	≤ 0.25
MNMA	≤ 0.25
PKIQ	≤ 0.25
SEIM	15.1
GVIC	≤ 0.25
VYLD	0.527
DYWI	≤ 0.25
GRMY	≤ 0.25
WCCG	≤ 0.25
AKVP	≤ 0.25
ECRI	≤ 0.25
DGCA	≤ 0.25
EPAI	≤ 0.25
ISDG	≤ 0.25
ARWI	≤ 0.25

Variant	enrichment ratio
ASGG	4.75
EMFF	≤ 0.25
TGPA	≤ 0.25
AHSY	≤ 0.25
NWAG	≤ 0.25
YWAP	≤ 0.25
EFQN	≤ 0.25
HVGW	≤ 0.25
PRMD	≤ 0.25
SDYH	≤ 0.25
PCVE	≤ 0.25
VAWL	4.11
NCNP	≤ 0.25
TVQL	16.7
FYID	≤ 0.25
LMYK	≤ 0.25
QSEI	≤ 0.25
NSSM	0.911
FWNI	≤ 0.25
ESDF	≤ 0.25
ALSY	6.65
EEWV	≤ 0.25
FWQG	≤ 0.25
IAKC	≤ 0.25

Variant	enrichment ratio
WLTH	≤ 0.25
NRVT	≤ 0.25
MPYP	≤ 0.25
STIN	7.01
PIID	≤ 0.25
TNHA	≤ 0.25
LPIR	≤ 0.25
APYF	≤ 0.25
SVFA	≤ 0.25
PGDM	≤ 0.25
GMMQ	≤ 0.25
MLYV	≤ 0.25
GLNE	≤ 0.25
ATGR	≤ 0.25
NCDD	≤ 0.25
SGNP	≤ 0.25
QHSQ	≤ 0.25
KHDL	≤ 0.25
LDNY	≤ 0.25
WTFT	≤ 0.25
FHTI	≤ 0.25
VWSC	≤ 0.25
QNWN	4.18
SEEK	≤ 0.25

Variant	enrichment ratio
GGNS	≤ 0.25
IRPA	≤ 0.25
TYDC	≤ 0.25
IYNT	≤ 0.25
SLQF	1.06
YADL	≤ 0.25
KQRC	≤ 0.25
SNWI	≤ 0.25
YMFN	≤ 0.25
RDSS	≤ 0.25
STVA	4.52
FDYR	≤ 0.25
GRKS	≤ 0.25
IWCY	≤ 0.25
KRMA	≤ 0.25
NSDW	≤ 0.25
PNTF	≤ 0.25
DVCP	1.78
FEMQ	9.2
NINL	≤ 0.25
STYL	0.375
LHQL	≤ 0.25
MLYR	≤ 0.25
YSLW	≤ 0.25

Variant	enrichment ratio
HWWT	≤ 0.25
NTYP	≤ 0.25
MNNM	≤ 0.25
QPMW	≤ 0.25
ERFS	≤ 0.25
NASH	≤ 0.25
CHCS	≤ 0.25
KVNL	≤ 0.25
EAHN	≤ 0.25
PCCM	≤ 0.25
HEII	≤ 0.25
TPGE	≤ 0.25
PITF	≤ 0.25
VHCP	≤ 0.25
VHDD	≤ 0.25
MWDT	≤ 0.25
RHWN	≤ 0.25
WEWL	≤ 0.25
DYMY	≤ 0.25
NRSQ	≤ 0.25
IRQL	≤ 0.25
LHPI	≤ 0.25
AISC	9.79
GASY	≤ 0.25

Variant	enrichment ratio
VCMC	1.73
HGKV	≤ 0.25
GDAD	≤ 0.25
IHGE	≤ 0.25
IAAN	≤ 0.25
HYME	≤ 0.25
HWIT	≤ 0.25
GYFG	≤ 0.25
LCDP	≤ 0.25
SPFQ	≤ 0.25
DKAT	≤ 0.25
LKGW	≤ 0.25
ASQH	≤ 0.25
KFGR	≤ 0.25
PATY	≤ 0.25
VNAT	1.79
ADYE	≤ 0.25
KNIS	≤ 0.25
PFVG	≤ 0.25
SDAL	≤ 0.25
RDTS	≤ 0.25
GNQT	≤ 0.25
HATN	≤ 0.25
WIPS	≤ 0.25

Variant	enrichment ratio
HWSW	≤ 0.25
FVRV	≤ 0.25
NWAD	≤ 0.25
SPYA	≤ 0.25
LWFD	≤ 0.25
DGNH	≤ 0.25
VNDL	≤ 0.25
YRQV	≤ 0.25
SWIT	≤ 0.25
ALYP	0.743
RHCH	≤ 0.25
GDEH	≤ 0.25
EGDL	≤ 0.25
RNNL	≤ 0.25
SGIL	4.9
NSHS	≤ 0.25
IDKT	≤ 0.25
DNAG	≤ 0.25
VIKN	≤ 0.25
MGNN	≤ 0.25
NWEL	≤ 0.25
LTTT	≤ 0.25
KCYY	≤ 0.25
IKGV	≤ 0.25

Variant	enrichment ratio
NMDS	≤ 0.25
NPVN	≤ 0.25
VNWE	≤ 0.25
LTQA	≤ 0.25
HEQM	8.33
MKLT	≤ 0.25
TMLH	≤ 0.25
SHIP	≤ 0.25
GVKP	≤ 0.25
IFIK	≤ 0.25
MQLH	0.839
YPSE	≤ 0.25
TNVD	≤ 0.25
NATS	≤ 0.25
AKYH	≤ 0.25
FPQA	≤ 0.25
QQLS	3.17
NSEY	≤ 0.25
GEFT	≤ 0.25
TLTM	19
NWPP	≤ 0.25
GYWW	≤ 0.25
ERVT	≤ 0.25
VYWN	≤ 0.25

Variant	enrichment ratio
NNWD	≤ 0.25
NLFD	≤ 0.25
FQVR	≤ 0.25
WTNR	≤ 0.25
YCHE	≤ 0.25
EFHP	≤ 0.25
AWSY	≤ 0.25
WPQE	≤ 0.25
QYWF	≤ 0.25
TVRL	0.897
IVCA	0.421
YNTE	≤ 0.25
NDCN	≤ 0.25
DFGM	≤ 0.25
HPRR	≤ 0.25
TYFV	≤ 0.25
DATG	≤ 0.25
GTPQ	≤ 0.25
AYGI	≤ 0.25
QNFI	≤ 0.25
MAMR	≤ 0.25
VYDK	≤ 0.25
GLAN	≤ 0.25
LWKQ	≤ 0.25

Variant	enrichment ratio
ITTV	≤ 0.25
QFWL	≤ 0.25
TEYT	3.84
TVTG	15.3
EWCR	≤ 0.25
DYEI	≤ 0.25
DTTK	≤ 0.25
HSFP	≤ 0.25
FHSW	≤ 0.25
YWFS	≤ 0.25
KGRT	≤ 0.25
VKTT	≤ 0.25
SLVN	1.02
SELC	20.4
YYIH	≤ 0.25
TKLG	10
MPRG	≤ 0.25
SRYP	≤ 0.25
DMMW	≤ 0.25
VFMN	≤ 0.25
DQES	≤ 0.25
NGIG	≤ 0.25
SEHH	≤ 0.25
RCKE	≤ 0.25

Variant	enrichment ratio
HGYC	≤ 0.25
IVSP	≤ 0.25
WKYD	≤ 0.25
SYFS	≤ 0.25
HMDS	≤ 0.25
DISE	≤ 0.25
KTII	≤ 0.25
AVCQ	3.67
RGAT	≤ 0.25
NTCH	≤ 0.25
PFHA	≤ 0.25
MLLF	1.3
GYHF	≤ 0.25
RGPH	≤ 0.25
FCQK	≤ 0.25
NWDL	≤ 0.25
PSQT	≤ 0.25
ILDG	≤ 0.25
WWCH	≤ 0.25
QARV	≤ 0.25
WKFL	≤ 0.25
MRVE	≤ 0.25
KFDQ	≤ 0.25
IFEY	≤ 0.25

Variant	enrichment ratio
TCQS	6.51
ILSN	≤ 0.25
PHVE	≤ 0.25
IDTA	≤ 0.25
QEHP	≤ 0.25
SPGW	≤ 0.25
WHKY	≤ 0.25
RKLM	0.532
LNYL	≤ 0.25
NINF	≤ 0.25
PMVE	≤ 0.25
MREW	≤ 0.25
NQDG	≤ 0.25
VKFS	≤ 0.25
VYDG	≤ 0.25
MSPD	≤ 0.25
RYAQ	≤ 0.25
SDFG	≤ 0.25
